Data: PubChem BioAssay AID485281 (National Center for Advancing Translational Sciences (NCATS), 2010)
About 260 (0.074%) of roughly 350,000 compounds were called active. This list was built around the results that the source calls inconclusive (neither active nor inactive); the mix of calls is not that of the screen. Calls follow the shape of the dose curve; as a rule, active = well fitted inhibition curve with a large enough effect; inconclusive = small, poorly fitted or top-dose-only effect; inactive = no such curve, though single readings can be large or run the other way. Potencies of inconclusive entries are doubtful fits and often do not repeat.
% is scaled to controls: 0 for no effect and ±100 for the full control effect; tags tell the direction and shape of the fitted curve.
Also: nearly all actives have a fitted effect of over 20% in size.

Each compound was assayed against Ferritin light chain (Equus caballus) (UniProt P02791) (assay: qHTS Assay for Identification of Novel General Anesthetics). Settings: apoferritin/1-aminoanthracene competitive binding, fluorescence; activity change, negative = displacement: at 77.5 µM (top of the series).
Chain of UniProt P02791 (P02791 whole entry, looked up): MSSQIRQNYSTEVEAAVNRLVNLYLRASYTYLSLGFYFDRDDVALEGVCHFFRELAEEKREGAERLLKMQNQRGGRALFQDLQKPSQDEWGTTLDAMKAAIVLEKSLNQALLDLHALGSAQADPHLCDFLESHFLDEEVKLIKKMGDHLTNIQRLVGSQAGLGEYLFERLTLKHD
How it was run: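 Steps: apoferritin (10 uM) was premixed with half-saturated 1-AMA in PBS, compounds were pin-transferred, plates stood 10 min at room temperature, fluorescence was read at 380/535 nm, and curves were fitted with a Hill equation.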
`CC(C)(C)c1csc(NC(=O)CCc2ccccc2)n1` was tested, and the Potency was inconclusive: 44.7 µM [inhibitor, partial curve]. For `CSc1nnc(NC(=O)c2cc(=O)c3cc(C)c(C)cc3o2)s1`, the “activity change, negative = displacement” value was inactive: -12.1%. With `O=C(Nc1ccc(F)c(F)c1)c1cc(S(=O)(=O)N2CCN(c3ccccn3)CC2)ccc1F` the Potency was inconclusive: 17.8 µM [inhibitor, partial curve]. In the case of `CC1OC2(C)OC(=N)C1(C#N)C(C#N)(C#N)C2c1ccccc1` (configuration not stated), the “activity change, negative = displacement” value is reported as inactive: 284%. With `COC(=O)N/N=C/C1=CCC2CC1C2(C)C` (configuration not stated) the Potency was inconclusive: 28.2 µM [inhibitor, partial curve]. In the case of `O=[N+]([O-])c1ccc(NCCCNS(=O)(=O)c2ccccc2)c(Cl)c1`, the Potency is reported as inconclusive: 56.2 µM [inhibitor, single point]. In the case of `CCOC(=O)c1cc(-c2ccc(C)cc2)n(CCCC(=O)Nc2cc(C)ccc2C)c1`, the “activity change, negative = displacement” value is reported as inactive: 52.4%. For `COc1ccccc1NC(=O)NNC(=O)COc1ccc2ccccc2c1`, the Potency was inconclusive: 35.5 µM [inhibitor, partial curve, poor fit]. In the case of `COc1ccc(Cn2ccc3nc(C)c(C(=O)Nc4cc(OC)c(OC)c(OC)c4)cc3c2=O)cc1`, the Potency is reported as inconclusive: 5.62 µM [inhibitor, full curve]. In the case of `COc1ccc2c(c1OC)C(=O)N(c1cccc(C)c1)C2=O`, the Potency is reported as inconclusive: 35.5 µM [inhibitor, partial curve]. `CCOc1c(OC(C)=O)ccc(/C=C/c2ccc3cccc(OC)c3n2)c1[N+](=O)[O-]` was tested, and the Potency was inconclusive: 44.7 µM [inhibitor, single point]. For `CCCCC(=O)N1CCc2cc(OC)c(OC)cc2C1COc1ccc(C(=O)OCC)cc1` (configuration not stated), the “activity change, negative = displacement” value was inactive: -14%. For `Cc1ccc(C(=O)CSC2=C(C#N)C(c3ccco3)CC(=O)N2)c(C)c1` (configuration not stated), the Potency was inconclusive: 31.6 µM [inhibitor, partial curve, poor fit]. For `CCOc1ccccc1NC(=O)c1c2c(nc3ccccc13)C(=O)N(C1CCCCC1)C2`, the Potency was inconclusive: 20 µM [inhibitor, partial curve]. `CCc1ccc(/C=C2/C(=O)N(C)C(=S)N2CC(=O)OC)s1` was tested, and the Potency was inconclusive: 31.6 µM [inhibitor, single point]. For `CCCOc1c(OC)cccc1C1CC(=O)Nc2cc3c(cc21)OCCO3` (configuration not stated), the Potency was inconclusive: 28.2 µM [inhibitor, single point]. `CCO[C@H]1OC(C(=O)NCc2nc3ccccc3[nH]2)=C[C@@H](c2ccc(C(F)(F)F)cc2)[C@@H]1CCCO` was tested, and the Potency was inconclusive: 8.91 µM [inhibitor, full curve, poor fit]. In the case of `CCC1CN(C(=O)N2CCC(C(=O)N3CCN(c4ccccc4)CC3)CC2)c2ccccc2O1` (configuration not stated), the Potency is reported as inconclusive: 7.94 µM [inhibitor, full curve]. In the case of `O=C(Nc1nc2n(n1)C(c1ccc(F)cc1)C=C(c1ccc(Cl)cc1)N2)c1ccc([N+](=O)[O-])cc1` (configuration not stated), the “activity change, negative = displacement” value is reported as inactive: 3.34%. In the case of `O=C(c1ccc(COc2ccc3ccccc3c2)o1)N1N=C(C(F)F)CC1(O)C(F)F` (configuration not stated), the Potency is reported as inconclusive: 25.1 µM [inhibitor, partial curve]. `O=C(Nc1ccc(N2C(=O)C3C4C=CC(C4)C3C2=O)cc1)Nc1nncs1` (configuration not stated) was tested, and the Potency was inconclusive: 35.5 µM [inhibitor, single point]. In the case of `O=C(CSc1nc2ccccc2c(=O)[nH]1)N1CCN(S(=O)(=O)c2ccccc2)CC1`, the “activity change, negative = displacement” value is reported as inactive: -17.6%. In the case of `CC(C)(CCC(=S)N1CCOCC1)C1CCCCC1`, the Potency is reported as inconclusive: 50.1 µM [inhibitor, single point]. For `CC(C)c1ccc(NC(=O)C2CSC3(C)CCC(=O)N23)cc1` (configuration not stated), the Potency was inconclusive: 28.2 µM [inhibitor, partial curve]. In the case of `Cc1cc(C(=O)NC2CCCc3ccccc32)c(C)o1` (configuration not stated), the Potency is reported as inconclusive: 39.8 µM [inhibitor, partial curve]. In the case of `COc1ccccc1CC(=O)Nc1ccc2nc(Nc3cccc(C(F)(F)F)c3)cc(C)c2c1`, the “activity change, negative = displacement” value is reported as inactive: 424%. In the case of `COc1ccccc1NC(C#N)c1ccccc1OCc1ccccc1` (configuration not stated), the Potency is reported as inconclusive: 50.1 µM [inhibitor, single point]. For `CCN(CC)C(=S)SCC(=O)NC12CC3CC(CC(C3)C1)C2`, the Potency was inconclusive: 14.1 µM [inhibitor, partial curve]. For `Nc1c(C(=O)NCc2cccs2)nnn1CC(=O)Nc1cccc(F)c1`, the Potency was inconclusive: 3.55 µM [inhibitor, full curve]. With `CC(C)(C)C1CCc2c(sc3nc(SCC(N)=O)nc(N)c23)C1` (configuration not stated) the Potency was inconclusive: 22.4 µM [inhibitor, partial curve]. With `CCOc1ccc(C2NC(=O)c3n[nH]c(C)c32)cc1` (configuration not stated) the “activity change, negative = displacement” value was inactive: 44.1%. `COc1ccc(NC(=O)CCSc2nnnn2C)cc1` was tested, and the Potency was inconclusive: 126 µM [inhibitor, partial curve]. In the case of `Cc1ccccc1OCCC(=O)Nc1cccc(S(=O)(=O)Nc2ccccc2Cl)c1`, the “activity change, negative = displacement” value is reported as inactive: 0.0841%. `COC(=O)c1ccc(CSc2c(C(C)C)cnc3c2c(=O)n(C)c(=O)n3C)cc1` was tested, and the Potency was inconclusive: 35.5 µM [inhibitor, partial curve]. For `Cc1ccc(N(C)C(=O)N2CCN(S(=O)(=O)c3ccc4ccccc4c3)CC2)cc1`, the “activity change, negative = displacement” value was inactive: -8.28%. With `O=C(COc1cccc2ccccc12)N/N=C/c1ccco1` the Potency was inconclusive: 25.1 µM [inhibitor, partial curve]. With `CC1(C)Cc2ccccc2-c2n[nH]c(=S)n21` the Potency was inconclusive: 28.2 µM [inhibitor, partial curve]. In the case of `COc1ccc(Cl)cc1NC(=O)CC1S/C(=N/N=C2CCCCCC2)NC1=O` (configuration not stated), the Potency is reported as inconclusive: 14.1 µM [inhibitor, partial curve]. With `CC(=O)c1ccc(OCc2cc(C(=O)N3CCN(c4ccccc4)CC3C)no2)cc1` (configuration not stated) the “activity change, negative = displacement” value was inactive: -9.23%. In the case of `COC(=O)c1c(C#N)c(N)nc2c1CCCC2`, the “activity change, negative = displacement” value is reported as inactive: 447%. `CCOc1ccc(S(=O)(=O)NCCSCc2ccco2)cc1` was tested, and the Potency was inconclusive: 25.1 µM [inhibitor, partial curve]. In the case of `CN(C)CCCNC(=O)/C(=C\c1ccc(-c2ccc(Br)cc2)o1)NC(=O)c1ccccc1`, the “activity change, negative = displacement” value is reported as inactive: 5.8%. For `CCN(CC)S(=O)(=O)c1ccc(NC(=O)COC(=O)c2cc(S(=O)(=O)Nc3ccc(OC)cc3)ccc2O)cc1`, the Potency was inconclusive: 12.6 µM [inhibitor, partial curve]. For `CN(c1ccccc1)S(=O)(=O)c1cc(C(=O)c2nccn2C)ccc1Cl`, the Potency was inconclusive: 22.4 µM [inhibitor, partial curve]. With `O=C1CC(c2ccccc2)CC(O)=C1C=NCc1ccccc1` (configuration not stated) the Potency was inconclusive: 35.5 µM [inhibitor, single point]. In the case of `Cc1ccccc1NS(=O)(=O)c1ccc2[nH]cc(C(=O)NCCc3ccccc3)c(=O)c2c1`, the “activity change, negative = displacement” value is reported as inactive: -10.5%. In the case of `CCCSC1=N/C(=C\c2ccc([N+](=O)[O-])o2)C(=O)S1`, the “activity change, negative = displacement” value is reported as inactive: -14.1%. `O=C(NC1CCCCC1)N1CCCCCC1` was tested, and the Potency was inconclusive: 20 µM [inhibitor, partial curve]. For `COc1ccc(CNC(=O)Cn2c(=O)n3nc(-c4ccc(OC)cc4)nc3c3ccccc32)cc1`, the “activity change, negative = displacement” value was inactive: 0.416%. With `CNC[C@@H](Cc1ccccc1)NC[C@@H](CC1CCCCC1)NCCCc1ccccc1` the Potency was inconclusive: 22.4 µM [inhibitor, partial curve]. For `COc1ccc2c(CC(=O)OCC(=O)NC(=O)c3cccn3C)coc2c1`, the Potency was inconclusive: 15.8 µM [inhibitor, partial curve]. With `COc1ccc(N(C(C)C(=O)N/N=C/c2ccc(OC(C)C)cc2)S(C)(=O)=O)cc1` (configuration not stated) the Potency was inconclusive: 17.8 µM [inhibitor, partial curve]. With `Cc1cn2c(=O)c(S(=O)(=O)Nc3ccc(OC(F)(F)F)cc3)c(C)nc2s1` the Potency was inconclusive: 50.1 µM [inhibitor, single point]. For `Cc1cccc2sc(NC(=O)CCNS(=O)(=O)c3cccc4nonc34)nc12`, the Potency was inconclusive: 17.8 µM [inhibitor, partial curve]. With `O=C(Nc1nc2ccccc2s1)C1CC(=O)N(c2ccc(F)cc2)C1` (configuration not stated) the Potency was inconclusive: 28.2 µM [inhibitor, single point]. In the case of `CC(=O)Nc1ccc(S(=O)(=O)c2c(N)n(CCN3CCOCC3)c3nc4ccccc4nc23)cc1`, the “activity change, negative = displacement” value is reported as inactive: 1%. In the case of `NC(=O)[C@H](Cc1cc2ccccc2s1)NC(=O)[C@@H]1CC2(CC(c3cccc(NC(=O)[C@@H]4CCC(=O)N4)c3)=NO2)CN1C(=O)/C=C/c1c(F)cccc1Cl` (some centres not stated), the Potency is reported as inconclusive: 39.8 µM [inhibitor, partial curve]. With `NC(=O)c1ccccc1NC(=O)CC12CC3CC(CC(C3)C1)C2` the Potency was inconclusive: 31.6 µM [inhibitor, partial curve]. For `CC(C)CN(CC(C)C)C(=O)c1cc2c(=O)n3ccccc3nc2s1`, the “activity change, negative = displacement” value was inactive: 43.6%. For `Cn1c(COc2ccccc2Br)nc2ccccc21`, the Potency was inconclusive: 44.7 µM [inhibitor, partial curve]. With `CCCCCCOC(=O)c1ccccc1NC(=O)/C=C/C(=O)O` the Potency was inconclusive: 35.5 µM [inhibitor, partial curve]. For `CNC(=S)N/N=C/c1c2ccccc2c(Cl)c2ccccc12`, the Potency was inconclusive: 12.6 µM [inhibitor, partial curve]. For `COc1ccccc1CCn1cnc2c3cc(C)ccc3n(C)c2c1=O`, the “activity change, negative = displacement” value was inactive: 0.596%. In the case of `COc1cc(OC)c(NC(=O)Nc2ccc3c(c2)N(C)C(=O)c2ccccc2S3)cc1Cl`, the “activity change, negative = displacement” value is reported as inactive: -7.62%. `CCOC(=O)c1c(-c2ccccc2)csc1N1C(=O)Nc2ccccc2N1O` was tested, and the “activity change, negative = displacement” value was inactive: -10.4%. In the case of `Cc1cnc(NC(=O)C2CCCC2)s1`, the Potency is reported as inconclusive: 39.8 µM [inhibitor, single point]. `O=C(CC(Nc1ccccc1Cl)C(=O)OCC(=O)c1cccs1)c1ccccc1` (configuration not stated) was tested, and the Potency was inconclusive: 25.1 µM [inhibitor, partial curve].
